For 27 compounds, cytotoxicity call and growth inhibition call results are on record in the antibiotic and cytotoxicity screens of Wong et al. (2023).

Each structure is given as a SMILES string. The list shows a part of the results.

Assay [1] concerns HSkMC (human skeletal muscle cells). The assay can be described thus: cytotoxicity call (relative viability < 0.9). The settings on record: 10 µM.
The subject of assay [2] is HepG2. The assay can be described thus: cytotoxicity call (relative viability < 0.9). The settings on record: 10 µM.
The subject of assay [3] is S. aureus RN4220. The assay can be described thus: growth inhibition call (relative growth <= 0.2). The conditions noted are these: 50 µM.

As for `CCC[C@@H](O)C#Cc1cnc2c(c1)C(=O)N([C@H](C)CO)C[C@H](C)[C@H](CN(C)S(=O)(=O)c1cccc(OC)c1)O2`, the cytotoxicity call in assay [1] and in assay [2] was “inactive” in each case. In addition, in assay [3], the growth inhibition call is “inactive”.
For the compound `O=C(CN1CCOCC1)N[C@@H]1CC[C@@H](CCNC(=O)C2CCC2)O[C@H]1CO`, the cytotoxicity call in assay [1] and in assay [2] was “inactive” in each case. Also, in assay [3], the growth inhibition call is “inactive”.
Consider `O=C1O[C@@H](c2ccccc2)[C@@H](c2ccccc2)N2[C@@H](c3ccc(OCCO)cc3)[C@]3(C(=O)Nc4ccc(C#CC5=CCCCC5)cc43)[C@@H](C(=O)NC[C@H](O)c3ccccc3)[C@H]12`, for which the cytotoxicity call in assay [1] was “inactive”. In addition, the cytotoxicity call in assay [2] is “active”. In addition, in assay [3], the growth inhibition call was “inactive”.
In the case of `O=C(O)[C@H](O)[C@@](O)(Cc1ccc(O)cc1)C(=O)O`, the cytotoxicity call in assay [1] and in assay [2] was “inactive” in each case. Moreover, the growth inhibition call in assay [3] was “inactive”.
With `C[C@H]1CN([C@@H](C)CO)C(=O)Cc2cc(NC(=O)Nc3ccccc3)ccc2O[C@H]1CN(C)Cc1ccc(C(F)(F)F)cc1`, the cytotoxicity call in assay [1] and in assay [2] was “active” throughout. In addition, the growth inhibition call in assay [3] was “inactive”.
For `C[C@@H]1CN([C@@H](C)CO)C(=O)Cc2cc(NC(=O)CCCCCC(=O)Nc3ccccc3N)ccc2O[C@H]1CN(C)Cc1ccc(C(F)(F)F)cc1`, the cytotoxicity call in assay [1] and in assay [2] was “inactive” throughout. In assay [3], the growth inhibition call is “inactive”.
In the case of `C[C@@H]1CCCCO[C@@H](CN(C)C(=O)c2ccccc2)[C@H](C)CN([C@H](C)CO)C(=O)c2cc(NS(=O)(=O)c3ccc(Cl)cc3)ccc2O1`, the cytotoxicity call in assay [1] and in assay [2] was “inactive” each time. For the same compound, in assay [3], the growth inhibition call was “inactive”.
Take `CNC[C@@H]1OCCCC[C@H](C)Oc2ccc(NS(=O)(=O)c3c(C)noc3C)cc2C(=O)N([C@@H](C)CO)C[C@H]1C`: the cytotoxicity call in assay [1] and in assay [2] was “inactive” in each case. Also, in assay [3], the growth inhibition call was “inactive”.
As for `C[C@H](CO)N1C[C@H](C)[C@@H](CN(C)S(=O)(=O)c2cccs2)Oc2ccc(NC(=O)CCN3CCOCC3)cc2C1=O`, the cytotoxicity call in assay [1] and in assay [2] was “inactive” throughout. Moreover, the growth inhibition call in assay [3] was “inactive”.
As to `O=C(C[C@@H]1C=C[C@@H](NC(=O)Nc2ccc3c(c2)OCO3)[C@@H](CO)O1)NCCCN1CCOCC1`, the cytotoxicity call in assay [1] and in assay [2] was “inactive” in each case. Also, in assay [3], the growth inhibition call is “inactive”.
Consider `Cc1ccc(S(=O)(=O)Nc2ccc3c(c2)CC(=O)N([C@H](C)CO)C[C@@H](C)[C@H](CN(C)Cc2ccncc2)O3)cc1`, for which the cytotoxicity call in assay [1] and in assay [2] was “inactive” in each case. Also, the growth inhibition call in assay [3] was “inactive”.
`CCn1nnc2c(SCC(N)=O)ncnc21`: the cytotoxicity call in assay [1] and in assay [2] was “inactive” each time. In assay [3], the growth inhibition call was “inactive”.
For `N=C(N)NC[C@H]1COC2(CCCCC2)O1`, the cytotoxicity call in assay [1] and in assay [2] was “inactive” throughout. The growth inhibition call in assay [3] is “inactive”.
Consider `C[C@@H]1CCCCO[C@H](CN(C)C(=O)Nc2ccccc2)[C@@H](C)CN([C@@H](C)CO)C(=O)c2cc(NS(=O)(=O)c3cccs3)ccc2O1`, for which the cytotoxicity call in assay [1] is “inactive”. In addition, the cytotoxicity call in assay [2] is “active”. The growth inhibition call in assay [3] is “inactive”.
On to `CCc1nc2ccc(C(=O)NCCN3CCNC3=O)cn2c1N(CC)Cc1cccc(Br)c1`, for which the cytotoxicity call in assay [1] and in assay [2] was “inactive” in each case. Also, the growth inhibition call in assay [3] was “inactive”.
Regarding `O=C(C[C@@H]1CC[C@@H]2[C@H](COC[C@H](O)CN2S(=O)(=O)c2cccc(Cl)c2)O1)NCc1ccc2c(c1)OCO2`, the cytotoxicity call in assay [1] and in assay [2] was “inactive” each time. The growth inhibition call in assay [3] is “inactive”.
Regarding `COc1ccc(C#Cc2ccc3c(c2)O[C@@H](CN(C)S(=O)(=O)c2ccccc2F)[C@H](C)CN([C@H](C)CO)S3(=O)=O)cc1`, the cytotoxicity call in assay [1] and in assay [2] was “inactive” in each case. In addition, the growth inhibition call in assay [3] is “inactive”.
As to `O=C(C[C@@H]1C[C@H]2c3cc(NC(=O)Nc4ccc(C(F)(F)F)cc4)ccc3O[C@H]2[C@H](CO)O1)NCCc1ccccc1`, the cytotoxicity call in assay [1] was “active”. In addition, in assay [2], the cytotoxicity call is “inactive”. The growth inhibition call in assay [3] is “inactive”.
Consider `C[C@@H]1CN([C@@H](C)CO)C(=O)c2cc(NS(C)(=O)=O)ccc2O[C@H]1CN(C)Cc1ccc(C(=O)O)cc1`, for which the cytotoxicity call in assay [1] and in assay [2] was “inactive” in each case. The growth inhibition call in assay [3] is “inactive”.
Take `C[C@H]1CN([C@@H](C)CO)S(=O)(=O)c2ccc(C#Cc3ccccc3)cc2O[C@H]1CN(C)S(C)(=O)=O`: the cytotoxicity call in assay [1] and in assay [2] was “inactive” each time. In addition, the growth inhibition call in assay [3] is “inactive”.
On to `COc1ccc(S(=O)(=O)Nc2ccc3c(c2)C(=O)N([C@H](C)CO)C[C@@H](C)[C@@H](CN(C)S(C)(=O)=O)OCCCC[C@H](C)O3)cc1`, for which the cytotoxicity call in assay [1] and in assay [2] was “inactive” in each case. Besides, the growth inhibition call in assay [3] is “inactive”.
Turning to `CC(C)(C)S(=O)N1Cc2cc(C(=O)N3CCN(Cc4ccccc4)CC3)nc(-c3cccc(-c4cc5ccccc5o4)c3)c2[C@H]1CCO` (stereo partly specified), the cytotoxicity call in assay [1] and in assay [2] was “active” each time. Besides, the growth inhibition call in assay [3] is “inactive”.
Take `C[C@H]1CN([C@@H](C)CO)C(=O)c2cccc(NS(=O)(=O)c3cccs3)c2O[C@H]1CN(C)Cc1ccc(Cl)c(Cl)c1`: the cytotoxicity call in assay [1] and in assay [2] was “inactive” each time. The growth inhibition call in assay [3] is “inactive”.
With `CS(=O)(=O)N1CCOC[C@]2(CN(C(=O)c3ccc[nH]3)CCO2)C1`, the cytotoxicity call in assay [1] and in assay [2] was “inactive” each time. Besides, the growth inhibition call in assay [3] was “inactive”.
Consider `C[C@@H]1C(=O)O[C@@H]2C[C@@](C)(O)[C@H]3C[C@H]4O[C@@]4(C)[C@@]3(O)C(=O)[C@@H]12`, for which the cytotoxicity call in assay [1] and in assay [2] was “inactive” throughout. Moreover, the growth inhibition call in assay [3] was “inactive”.
Turning to `CCNC(=O)C[C@@H]1CC[C@@H]2[C@H](COC[C@@H](O)CN2C(=O)Nc2c(C)noc2C)O1`, the cytotoxicity call in assay [1] and in assay [2] was “inactive” in each case. Further, the growth inhibition call in assay [3] is “inactive”.
As for `COC(=O)c1c(CC[C@@H](CO)NC(=O)NCCn2cc(C3(O)CCCC3)nn2)oc(C(C)=O)c1C(=O)OC`, the cytotoxicity call in assay [1] and in assay [2] was “inactive” throughout. In addition, in assay [3], the growth inhibition call was “inactive”.
